The assay has as its target T1, Flag-FKBP51 (pRK5 FKBP51 WT) (UniProt Q13451).
T1 sequence: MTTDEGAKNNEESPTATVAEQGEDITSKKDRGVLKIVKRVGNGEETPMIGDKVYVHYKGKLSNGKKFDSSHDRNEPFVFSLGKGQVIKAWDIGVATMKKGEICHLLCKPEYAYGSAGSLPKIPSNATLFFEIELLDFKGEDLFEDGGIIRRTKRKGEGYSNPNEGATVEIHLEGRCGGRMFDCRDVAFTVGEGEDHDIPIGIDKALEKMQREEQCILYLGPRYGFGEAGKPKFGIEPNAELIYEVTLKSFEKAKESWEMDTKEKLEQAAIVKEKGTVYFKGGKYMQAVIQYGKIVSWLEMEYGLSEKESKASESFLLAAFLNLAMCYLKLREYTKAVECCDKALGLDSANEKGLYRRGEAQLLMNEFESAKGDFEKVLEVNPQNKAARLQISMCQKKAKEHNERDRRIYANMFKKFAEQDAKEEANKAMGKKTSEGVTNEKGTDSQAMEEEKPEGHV
Description: co-IP; HEK293T (legends: HEK293) co-transfected with Flag-FKBP51 or its mutants and HA-tagged partners; anti-Flag immunoprecipitation, blot with anti-HA, anti-TRAF2 or anti-IKKα/β; RIPA buffer; with or without FK506 (Figure 3B); the precipitating antibody is not told for Figures 3B and 4B.

The chains behind the UniProt entries cited, without tags or fusion partners.
UniProt Q9Y6K9: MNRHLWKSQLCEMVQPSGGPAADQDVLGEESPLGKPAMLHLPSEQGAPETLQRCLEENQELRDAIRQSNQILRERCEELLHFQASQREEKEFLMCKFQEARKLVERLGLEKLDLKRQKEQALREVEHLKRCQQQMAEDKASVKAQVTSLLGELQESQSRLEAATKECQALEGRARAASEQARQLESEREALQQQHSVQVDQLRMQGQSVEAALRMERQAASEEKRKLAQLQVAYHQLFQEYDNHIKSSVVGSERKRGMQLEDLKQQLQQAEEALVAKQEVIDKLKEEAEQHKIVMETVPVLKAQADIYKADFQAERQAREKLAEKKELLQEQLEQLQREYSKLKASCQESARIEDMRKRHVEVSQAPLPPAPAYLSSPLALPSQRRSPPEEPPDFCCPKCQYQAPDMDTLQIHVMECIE

Results are given in words; binding and its absence hold for the method and conditions named. In cells and extracts the contact can be indirect. Some binding calls cover weakened binding; strength is not graded here. Tags and fused reporters may be left off the sequences shown.

As to “HA-tagged human IKKγ (from UniProt Q9Y6K9 1-419)”, the binding result is given as “binds”.

Values taken from paper PMC4538817.
